# The supplement of paper PMC10037445
# Over roughly 2,900 compounds, “NF-kB SEAP reporter activity, fold change vs agonist alone” has its median near 0.99; the highest 2% begin near 2.6. Some of the results follow.
# Columns and labels:
# RAW-Dual [1] = test: NF-kB SEAP reporter activity, fold change vs agonist alone; cytotoxicity flag (confluency mask): not cytotoxic; higher = enhanced NF-kB activity
# How it was run: (§1)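 Cytotoxic wells were those whose IncuCyte confluency was below 70% of agonist controls in both mask sets. The cells were RAW-Dual macrophages at 50,000 cells/well in DMEM on 384-well plates, dosed with 50 nL of library stock by pin tool, stimulated with a PRR agonist 1 h later, and kept at 37 °C, 5% CO2 for 20 hours. IRF and NF-κB reporter activity, as fold change over agonist-alone wells, came from supernatant read by QuantiLuc luminescence and QuantiBlue absorbance, respectively.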
# RAW-Dual [2] = test: NF-kB SEAP reporter activity, fold change vs agonist alone; higher = enhanced NF-kB activity; conditions: library stock concentration (final ~1000-fold dilution): 10 mM
# How it was run: as §1
# RAW-Dual [3] = test: NF-kB SEAP reporter activity, fold change vs agonist alone; cytotoxicity flag (confluency mask): cytotoxic (confluency <70% of control); higher = enhanced NF-kB activity
# How it was run: as §1
# [4] = agonist: ODN 1826 (TLR9) 0.5 ug/mL
# [5] = agonist: Pam2CSK4 (TLR2/6) 0.1 ug/mL
# [6] = agonist: Pam3CSK4 (TLR2/1) 0.1 ug/mL
# [7] = cytotoxicity flag (confluency mask): not cytotoxic, agonist: Imiquimod (TLR7) […]
# [8] = cytotoxicity flag (confluency mask): not cytotoxic, agonist: MPLA (TLR4) […]
smiles,measurement,setting,value
CC1CN(CC(=O)Nc2ccc3c(c2)Cc2cccc(-c4cc(=O)cc(N5CCOCC5)o4)c2S3)CC(C)O1 (stereo not drawn) (library stock concentration (final ~1000-fold dilution): 10 mM),NF-kB SEAP reporter activity,RAW-Dual [1]; agonist: LPS (TLR4) 0.1 ug/mL,5.33
same,NF-kB SEAP reporter activity,RAW-Dual [1]; [4],0.922
same,NF-kB SEAP reporter activity,RAW-Dual [1]; [5],1.36
same,NF-kB SEAP reporter activity,RAW-Dual [1]; [6],1.99
CC1CN(CC(=O)Nc2ccc3c(c2)Cc2cccc(-c4cc(=O)cc(N5CCOCC5)o4)c2S3)CC(C)O1 (stereo not drawn),NF-kB SEAP reporter activity,RAW-Dual [2]; [7],1.54
same,NF-kB SEAP reporter activity,RAW-Dual [2]; [8],2.82
CC1(C)CN(C(=O)c2ccc(-c3cccc4nc(NC(=O)C5CC5)nn34)cc2)C1,NF-kB SEAP reporter activity,RAW-Dual [2]; [7],0.961
same,NF-kB SEAP reporter activity,RAW-Dual [2]; [8],0.977
CC1(C)CN(C(=O)c2ccc(-c3cccc4nc(NC(=O)C5CC5)nn34)cc2)C1 (library stock concentration (final ~1000-fold dilution): 10 mM),NF-kB SEAP reporter activity,RAW-Dual [1]; agonist: LPS (TLR4) 0.1 ug/mL,0.769
same,NF-kB SEAP reporter activity,RAW-Dual [1]; [4],1.1
same,NF-kB SEAP reporter activity,RAW-Dual [1]; [5],1.01
same,NF-kB SEAP reporter activity,RAW-Dual [1]; [6],1.04
Clc1ccc(C2(c3ccc(-c4cn[nH]c4)cc3)CCNCC2)cc1 (library stock concentration (final ~1000-fold dilution): 10 mM),NF-kB SEAP reporter activity,RAW-Dual [3]; agonist: LPS (TLR4) 0.1 ug/mL,0.443
same,NF-kB SEAP reporter activity,RAW-Dual [3]; [4],0.2
same,NF-kB SEAP reporter activity,RAW-Dual [3]; [5],0.426
same,NF-kB SEAP reporter activity,RAW-Dual [3]; [6],0.645
Clc1ccc(C2(c3ccc(-c4cn[nH]c4)cc3)CCNCC2)cc1,NF-kB SEAP reporter activity,"RAW-Dual [2]; cytotoxicity flag (confluency mask): cytotoxic (confluency <70% of control), agonist: Imiquimod (TLR7) […]",2.21
same,NF-kB SEAP reporter activity,"RAW-Dual [2]; cytotoxicity flag (confluency mask): cytotoxic (confluency <70% of control), agonist: MPLA (TLR4) […]",0.649
NC1(Cc2ccc(Cl)cc2)CCN(c2ncnc3[nH]ccc23)CC1 (library stock concentration (final ~1000-fold dilution): 10 mM),NF-kB SEAP reporter activity,RAW-Dual [1]; agonist: LPS (TLR4) 0.1 ug/mL,0.427
same,NF-kB SEAP reporter activity,RAW-Dual [1]; [4],0.866
same,NF-kB SEAP reporter activity,RAW-Dual [1]; [5],0.402
same,NF-kB SEAP reporter activity,RAW-Dual [1]; [6],0.827
NC1(Cc2ccc(Cl)cc2)CCN(c2ncnc3[nH]ccc23)CC1,NF-kB SEAP reporter activity,RAW-Dual [2]; [7],0.772
same,NF-kB SEAP reporter activity,RAW-Dual [2]; [8],0.885
Cc1cc(C(C)Nc2ccccc2)c2nc(N3CCOCC3)cc(=O)n2c1 (stereo not drawn),NF-kB SEAP reporter activity,RAW-Dual [2]; [7],0.511
same,NF-kB SEAP reporter activity,RAW-Dual [2]; [8],1.36
Cc1cc(C(C)Nc2ccccc2)c2nc(N3CCOCC3)cc(=O)n2c1 (stereo not drawn) (library stock concentration (final ~1000-fold dilution): 10 mM),NF-kB SEAP reporter activity,RAW-Dual [1]; agonist: LPS (TLR4) 0.1 ug/mL,1.35
same,NF-kB SEAP reporter activity,RAW-Dual [1]; [4],0.605
same,NF-kB SEAP reporter activity,RAW-Dual [1]; [5],0.633
same,NF-kB SEAP reporter activity,RAW-Dual [1]; [6],0.734
O=C1OC(COc2ccccc2[N+](=O)[O-])CC1Cc1ccccc1 (stereo not drawn) (library stock concentration (final ~1000-fold dilution): 10 mM),NF-kB SEAP reporter activity,RAW-Dual [1]; agonist: LPS (TLR4) 0.1 ug/mL,1.08
same,NF-kB SEAP reporter activity,RAW-Dual [1]; [4],0.937
same,NF-kB SEAP reporter activity,RAW-Dual [1]; [5],0.938
same,NF-kB SEAP reporter activity,RAW-Dual [1]; [6],1.48
O=C1OC(COc2ccccc2[N+](=O)[O-])CC1Cc1ccccc1 (stereo not drawn),NF-kB SEAP reporter activity,RAW-Dual [2]; [7],0.819
same,NF-kB SEAP reporter activity,RAW-Dual [2]; [8],1.09
COc1ccc(-c2ccc3c(N4CCOCC4C)nc(N4CCOCC4C)nc3n2)cc1CO (stereo not drawn),NF-kB SEAP reporter activity,RAW-Dual [2]; [7],1.11
same,NF-kB SEAP reporter activity,RAW-Dual [2]; [8],1.53
COc1ccc(-c2ccc3c(N4CCOCC4C)nc(N4CCOCC4C)nc3n2)cc1CO (stereo not drawn) (library stock concentration (final ~1000-fold dilution): 10 mM),NF-kB SEAP reporter activity,RAW-Dual [1]; agonist: LPS (TLR4) 0.1 ug/mL,1.62
same,NF-kB SEAP reporter activity,RAW-Dual [1]; [4],1.12
same,NF-kB SEAP reporter activity,RAW-Dual [1]; [5],0.372
same,NF-kB SEAP reporter activity,RAW-Dual [1]; [6],0.555
Clc1ccc2nsnc2c1NC1=NCCN1 (library stock concentration (final ~1000-fold dilution): 10 mM),NF-kB SEAP reporter activity,RAW-Dual [1]; agonist: LPS (TLR4) 0.1 ug/mL,1.16
same,NF-kB SEAP reporter activity,RAW-Dual [1]; [4],0.953
same,NF-kB SEAP reporter activity,RAW-Dual [1]; [5],0.991
same,NF-kB SEAP reporter activity,RAW-Dual [1]; [6],1.14
Clc1ccc2nsnc2c1NC1=NCCN1,NF-kB SEAP reporter activity,RAW-Dual [2]; [7],0.918
same,NF-kB SEAP reporter activity,RAW-Dual [2]; [8],0.985
